Data as given in PubChem BioAssay AID1362 (SRMLSC, 2008).
This is one part of the list. The main result of the screen is listed elsewhere. These columns were measured beside it and carry no call. Compounds called inactive in the main read-out are mostly missing here.

Experiment: growth inhibition of WT strain, primary screen, mitochondrial fusion inhibitor project, WT and mutant strains, chemical genetic (AID 1362); note: tested in S. cerevisiae
Settings: mitochondrial fusion phenotypic screen, at 10 µM

Q: Which inhibition does the source give for `COc1ccc(C(=O)N(c2ccc(OC)cc2)S(=O)(=O)c2cccs2)cc1` here?
A: Its inhibition is 41.3%.

Q: With `N=c1c2c(ncn1Cc1ccco1)Oc1ccc3ccccc3c1C2c1ccccc1` (stereo not drawn) as the compound, how does the inhibition read?
A: The inhibition was 36%.

Q: With `Cn1c(N=Nc2ccccc2)nc2ccccc21` as the compound, how does the inhibition read?
A: The inhibition was 77.7%.

Q: For `OC(COCC(F)(F)C(F)(F)C(F)(F)C(F)F)Cn1c2ccccc2c2ccccc21` (stereo not drawn), which inhibition is on record?
A: Its inhibition is 81.1%.

Q: Which inhibition does the source give for `Cc1cc(C(=O)CSc2nnc(-c3ccc(Cl)cc3)n2CC2CCCO2)c(C)n1C` (stereo not drawn) here?
A: Its inhibition is -2.38%.

Q: For `O=C1c2ccccc2C2=Nc3ccccc3SC(c3ccc(Cl)cc3)C12` (stereo not drawn), which inhibition is on record?
A: The inhibition was 47.8%.

Q: With `CCOc1ccccc1CNC(=O)c1ccc(Sc2ccc(Cl)cc2)c(NC(C)=O)c1` as the compound, how does the inhibition read?
A: The inhibition was 13.3%.

Q: Which inhibition does the source give for `CNC(=S)NCCC(c1ccccc1)c1ccccc1` here?
A: Its inhibition is 16.6%.

Q: For `O=C1CC(SC(=Nc2ccccc2)Nc2ccccc2)C(=O)N1c1ccc(Cl)c(Cl)c1` (stereo not drawn), which inhibition is on record?
A: Its inhibition is 23.9%.

Q: Which inhibition does the source give for `CC(Sc1ccc(Cl)cc1)C(=O)Nc1ccccc1-c1ccccc1` (stereo not drawn) here?
A: The inhibition was 10.3%.

Q: With `C[n+]1ccc(/C=C/c2ccccc2O)c2ccccc21` as the compound, how does the inhibition read?
A: Its inhibition is 39.9%.

Q: For `Cc1cccc(OCCCCCn2ccnc2)c1C`, which inhibition is on record?
A: Its inhibition is 65%.

Q: Which inhibition does the source give for `Cn1c(/C=C/c2ccccc2)nc2ccccc21` here?
A: The inhibition was 66.8%.

Q: For `Cc1nc(N2CCCCC2)c2c(C)c(C(=O)Nc3ccccc3C(F)(F)F)sc2n1`, which inhibition is on record?
A: Its inhibition is -18.9%.

Q: With `CC(=O)Nc1sc2c(c1C(c1ccc(Cl)cc1)N1CCOCC1)CCCC2` (stereo not drawn) as the compound, how does the inhibition read?
A: Its inhibition is 18.3%.

Q: For `CC(c1cccs1)N(Cc1ccco1)C(=O)Nc1ccc(Cl)c(Cl)c1` (stereo not drawn), which inhibition is on record?
A: The inhibition was 43.1%.

Q: Which inhibition does the source give for `CCc1ccccc1NC(=O)C1C(c2ccccc2)C1(Cl)Cl` (stereo not drawn) here?
A: Its inhibition is 56.1%.

Q: With `O=C(Nc1cccc(S(=O)(=O)N2CCCCC2)c1)Nc1ccc(Cl)cc1Cl` as the compound, how does the inhibition read?
A: The inhibition was 66.6%.

Q: For `Cc1ccc(S(=O)(=O)Nc2ccc(N=Nc3ccc(O)cc3)cc2)cc1`, which inhibition is on record?
A: Its inhibition is 15.1%.

Q: Which inhibition does the source give for `OCCNc1nc(SCc2ccccc2)nc2sc3c(c12)CCC3` here?
A: Its inhibition is 59.7%.

Q: For `Cc1ccc(NC(=S)Nc2ccc(C(C)C)cc2)cc1S(=O)(=O)N1CCCCCC1`, which inhibition is on record?
A: The inhibition was -14.1%.

Q: For `O=C(Nc1ccccc1)Nc1cc(Cl)cc(Cl)c1`, which inhibition is on record?
A: The inhibition was 78.3%.

Q: With `CCOC(=O)c1sc(NC(=O)CSc2n[nH]c(-c3ccccc3)n2)c(C#N)c1C` as the compound, how does the inhibition read?
A: The inhibition was 59.3%.

Q: For `CC(NC(=O)Nc1ccc(Cl)c(Cl)c1)C(c1ccccc1)N1CCOCC1` (stereo not drawn), which inhibition is on record?
A: The inhibition was 43.7%.

Q: Which inhibition does the source give for `CCn1c2ccccc2c2cc(CN3CCN(Cc4cc(OC)ccc4O)CC3)ccc21` here?
A: Its inhibition is 40.8%.

Q: Which inhibition does the source give for `Oc1ccc(Cl)cc1/C=C/c1ccc2cccc(O)c2n1` here?
A: The inhibition was 32.6%.

Q: Which inhibition does the source give for `CN1CCN(C(=O)c2cnn3c(C(F)(F)F)cc(-c4ccc5c(c4)OCO5)nc23)CC1` here?
A: Its inhibition is 96.2%.

Q: With `C=CCn1c(C)c(C(C)=O)c(N2CCN(C(c3ccccc3)c3ccccc3)CC2)nc1=S` as the compound, how does the inhibition read?
A: The inhibition was 5.47%.

Q: With `COc1cccc(OC)c1OCCCOc1ccc(C)cc1Br` as the compound, how does the inhibition read?
A: Its inhibition is 32.9%.

Q: With `CC1CCN(S(=O)(=O)c2ccc(Oc3ccc([N+](=O)[O-])cc3)cc2)CC1` as the compound, how does the inhibition read?
A: The inhibition was 6.76%.

Q: Which inhibition does the source give for `O=C(CCCOc1ccc(Cl)cc1Cl)N1CCCc2ccccc21` here?
A: The inhibition was 52.3%.

Q: With `COc1ccccc1C(=O)NC(=S)/C=C1/N(C)c2ccccc2C1(C)C` as the compound, how does the inhibition read?
A: The inhibition was 14.6%.

Q: Which inhibition does the source give for `Cc1cc(NC(=O)COC(=O)C(Nc2ccc(C(F)(F)F)cc2Cl)C(C)C)no1` (stereo not drawn) here?
A: Its inhibition is 27.5%.

Q: For `CCn1c2ccccc2c2cc(/C=N/NC(=O)c3cccc(C)c3)ccc21`, which inhibition is on record?
A: The inhibition was 6.29%.

Q: With `COc1ccc(OCC(=O)NNc2c3ccccc3nc3ccccc23)cc1` as the compound, how does the inhibition read?
A: The inhibition was 35.4%.

Q: With `Cc1cccc(NS(=O)(=O)c2ccc(C3CCCCC3)cc2)c1` as the compound, how does the inhibition read?
A: The inhibition was 24.4%.

Q: Which inhibition does the source give for `Cc1cccc2c(C(=O)N3CCN(C(=O)c4ccco4)CC3)cc(-c3cccc(Br)c3)nc12` here?
A: The inhibition was 44.4%.

Q: With `Cc1cccc(NC(=S)NCCC(c2ccccc2)c2ccccc2)c1` as the compound, how does the inhibition read?
A: The inhibition was 40.9%.

Q: With `Cn1nc(C(F)(F)F)c2cc(NC(=O)OCc3ccc(F)cc3)sc21` as the compound, how does the inhibition read?
A: Its inhibition is 36.6%.

Q: With `CC(C)CN(C(=O)c1nn(C)c(=O)c2ccccc12)c1nc2ccccc2s1` as the compound, how does the inhibition read?
A: Its inhibition is -7.1%.

Q: With `CCCCCc1nc2sc3c(c2c(=O)n1NC(=O)c1ccc([N+](=O)[O-])cc1)CC(C)(C)OC3` as the compound, how does the inhibition read?
A: The inhibition was 22.3%.

Q: For `COC(=O)c1cn(C(=O)OC)c2ccccc12`, which inhibition is on record?
A: Its inhibition is 3.95%.

Q: For `Cc1sc(-n2c(C)cc(/C=C3\SC(=S)NC3=O)c2C)c(C#N)c1C`, which inhibition is on record?
A: Its inhibition is 50.6%.

Q: With `Cc1cc(N2CCN(c3nc(-c4ccccc4)cs3)CC2)c2ccccc2n1` as the compound, how does the inhibition read?
A: Its inhibition is 64.9%.

Q: Which inhibition does the source give for `COc1ccc(-c2csc(-c3ccccc3)n2)c(OC)c1` here?
A: The inhibition was 70%.

Q: Which inhibition does the source give for `CCNC(=S)NNC(=O)c1cc(-c2ccc(OCC)cc2)nc2ccccc12` here?
A: Its inhibition is 62.1%.

Q: Which inhibition does the source give for `CCc1cc(-c2n[nH]c(=S)n2-c2ccccc2C)cs1` here?
A: Its inhibition is 10.2%.

Q: With `CCOC(=O)c1cnc(SC)nc1Sc1cc(Cl)ccc1Cl` as the compound, how does the inhibition read?
A: The inhibition was -3.05%.

Q: For `CN(C)C(=S)Nc1nc2ccccc2s1`, which inhibition is on record?
A: Its inhibition is 66.8%.

Q: With `CC[n+]1c(C=C2C=C(C)OC(C)=C2)sc2ccccc21` as the compound, how does the inhibition read?
A: Its inhibition is 62.6%.

Q: Which inhibition does the source give for `COC(=O)c1sccc1NC(=S)N1CCN(c2cccc(C)c2C)CC1` here?
A: Its inhibition is 41.4%.

Q: Which inhibition does the source give for `Cc1ccc(C(C(=O)NCC2CCCO2)N(Cc2ccccc2)C(=O)c2ccc(-c3ccccc3)[nH]2)o1` (stereo not drawn) here?
A: Its inhibition is -0.51%.

Q: For `O/C(=C\c1nc2ccccc2nc1/C=C(\O)c1ccccc1)c1ccccc1`, which inhibition is on record?
A: The inhibition was 30.7%.
